Biological target: T1, NRP1 (residues 22–644), extracellular a1a2b1b2 domain of human NRP1 (human, UniProt O14786 22-644)
T1 construct: neuropilin-1, human, residues 22-644, extracellular a1a2b1b2 domains; also called recombinant NRP1; neuropilin-1
T1 sequence (looked up): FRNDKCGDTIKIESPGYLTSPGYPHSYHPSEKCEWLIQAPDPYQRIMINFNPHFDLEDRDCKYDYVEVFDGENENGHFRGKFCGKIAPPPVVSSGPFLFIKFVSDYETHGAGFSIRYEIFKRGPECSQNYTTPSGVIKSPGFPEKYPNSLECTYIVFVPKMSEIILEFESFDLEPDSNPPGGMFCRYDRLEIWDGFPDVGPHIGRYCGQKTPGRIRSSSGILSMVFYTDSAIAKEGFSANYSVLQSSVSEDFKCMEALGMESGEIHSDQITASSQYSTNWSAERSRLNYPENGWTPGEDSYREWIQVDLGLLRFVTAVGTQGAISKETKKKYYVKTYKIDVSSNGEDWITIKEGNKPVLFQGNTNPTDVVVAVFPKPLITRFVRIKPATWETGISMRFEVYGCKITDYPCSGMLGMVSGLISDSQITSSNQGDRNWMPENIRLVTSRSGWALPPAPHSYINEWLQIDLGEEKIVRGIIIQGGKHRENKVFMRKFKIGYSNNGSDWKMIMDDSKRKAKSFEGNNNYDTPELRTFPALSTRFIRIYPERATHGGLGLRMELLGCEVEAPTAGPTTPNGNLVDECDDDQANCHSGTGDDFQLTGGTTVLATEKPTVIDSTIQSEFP
Assay: MST; fluorescent human βNGF with NRP1 (residues 22–644) or staphylokinase; conditions only in the Supplemental Methods
Conditions: both partners purified

- Kd: 35.5 ± 4.7 nM
B1: fluorescent human βNGF (ligand)
chain: not shown
modifications: fluorescent label (kind and site not stated)
notes: beta-nerve growth factor, human, mature βNGF; Also used for the functional rows, where the test system held mouse NGF; also called fluorescent human NGF; fluorescent NGF

Reference: article PMC11827847, “Neuropilin-1 inhibition suppresses nerve growth factor signaling and nociception in pain models” (The Journal of Clinical Investigation, 2024)
